B1: PhoQ; a variant is named by its letters at X, in order, P23837 (parent)
chain: MKKLLRLFFPLSLRVRFLLATAAVVLVLSLAYGMVALIGYSVSFDKTTFRLLRGESNLFYTLAKWENNKLHVELPENIDKQSPTMTLIYDENGQLLWAQRDVPWLMKMIQPDWLKSNGFHEIEADVNDTSLLLSGDHSIQQQLQEVREDDDDAEMTHSVAVNVYPATSRMPKLTIVVVDTIPVELKSSYMVWSWFIYVLSANLLLVIPLLWVAAWWSLRPIEALAKEVRELEEHNRELLNPATTRELTSLVRNLNRLLKSERERYDKYRTTLTDLTHSLKTPLXXLQXXLRSLRSEKMSVSDAEPVMLEQISRISQQIGYYLHRASMRGGTLLSRELHPVAPLLDNLTSALNKVYQRKGVNISLDISPEISFVGEQNDFVEVMGNVLDNACKYCLEFVEISARQTDEHLYIVVEDDGPGIPLSKREVIFDRGQRVDTLRPGQGVGLAVAREITEQYEGKIVAGESMLGGARMEVIFGRQHSAPKDE

Some of the results follow.

Variants of B1 are the subject of the assay. In words: enrichment ratio after two sorts for PhoP signalling (ratio (wild type AVST 3.29)); higher = more functional. The note with it: with PhoP (E. coli).
Turning to ENEV, the enrichment ratio was not above 0.25. KHHY: the enrichment ratio was not above 0.25.

Take YMCT: the enrichment ratio was not above 0.25. Turning to HCCY, the enrichment ratio is not above 0.25. As to WLFA, the enrichment ratio is not above 0.25. On to WYSF, for which the enrichment ratio is not above 0.25.

In the case of DVSN, the enrichment ratio is not above 0.25. For the variant SNYM, the enrichment ratio was not above 0.25. The result for WQAP reads not above 0.25; that for RVMQ, not above 0.25. On to DCYV, for which the enrichment ratio is not above 0.25.

For the variant MALF, the enrichment ratio worked out at 4.89. For the variant FCIW, the enrichment ratio was not above 0.25. For the variant MWCG, the enrichment ratio was not above 0.25. TLQY: the enrichment ratio was 5.21.

On to PKGA, for which the enrichment ratio was not above 0.25. The result for MPLE reads not above 0.25. Consider ITII, for which the enrichment ratio was not above 0.25. Turning to QFYF, the enrichment ratio was not above 0.25.

As to SPYN, the enrichment ratio is not above 0.25. The result for WFCW reads not above 0.25; that for GQMP, not above 0.25; that for IGEC, not above 0.25. For the variant NLNT, the enrichment ratio was not above 0.25. The result for IIPL reads not above 0.25; that for WIFY, not above 0.25; that for RSRS, not above 0.25. Regarding TNDR, the enrichment ratio was not above 0.25. As for KSPL, the enrichment ratio is not above 0.25.

With HWKK, the enrichment ratio was not above 0.25. On to HKDN, for which the enrichment ratio was not above 0.25. As for NTHM, the enrichment ratio was not above 0.25. The result for SKWL reads not above 0.25.

Consider TWYW, for which the enrichment ratio was not above 0.25. As to SMTP, the enrichment ratio is not above 0.25.

Take WPYE: the enrichment ratio is not above 0.25.

For the variant VTCC, the enrichment ratio is not above 0.25. Under YTMA stands not above 0.25; under ENFT, not above 0.25. GFHM: the enrichment ratio was not above 0.25.

In the case of RDIT, the enrichment ratio was not above 0.25. The result for ANRK reads not above 0.25; that for RADV, not above 0.25; that for FEAY, not above 0.25. On to KHMD, for which the enrichment ratio was not above 0.25.

As for DSSY, the enrichment ratio was not above 0.25. For the variant PGCF, the enrichment ratio is not above 0.25. On to MQAE, for which the enrichment ratio is not above 0.25. With PKDM, the enrichment ratio is not above 0.25. The result for GWKA reads not above 0.25. As to DNVL, the enrichment ratio was not above 0.25. Regarding QAGH, the enrichment ratio worked out at 1.79. For the variant LVGF, the enrichment ratio is not above 0.25. Under MFDI stands not above 0.25.

For the variant RSLA, the enrichment ratio was not above 0.25. Consider HMEF, for which the enrichment ratio is not above 0.25.

As to SRWG, the enrichment ratio was not above 0.25.

On to RWPE, for which the enrichment ratio was not above 0.25.

For the variant LGQE, the enrichment ratio is not above 0.25. For the variant YEDA, the enrichment ratio is not above 0.25. The result for TQCV reads 10.8; that for WQED, not above 0.25. Turning to IGYD, the enrichment ratio was not above 0.25. Regarding QINL, the enrichment ratio is not above 0.25. As to VMQM, the enrichment ratio was not above 0.25.

Regarding ARYR, the enrichment ratio was not above 0.25.

For the variant DLLF, the enrichment ratio was not above 0.25. Take TMND: the enrichment ratio worked out at 21.9. Under TMKC stands not above 0.25; under KDNC, not above 0.25. Under SESL stands 10.8; under IKHC, not above 0.25. Take YQLP: the enrichment ratio is not above 0.25. Turning to KEFV, the enrichment ratio is not above 0.25. AKLY: the enrichment ratio was 19.7. The result for CWCM reads not above 0.25; that for AQQY, not above 0.25; that for YQWS, not above 0.25. As for WDAD, the enrichment ratio was not above 0.25.

In the case of HGEI, the enrichment ratio was not above 0.25.

Turning to PYEV, the enrichment ratio was not above 0.25. Turning to YGPY, the enrichment ratio is not above 0.25.

Take ISSM: the enrichment ratio was found to be 0.778.

In the case of FTVL, the enrichment ratio came out at 5.17. As for GLIV, the enrichment ratio is not above 0.25.

Regarding IGEF, the enrichment ratio is not above 0.25. Consider CFVS, for which the enrichment ratio is not above 0.25. As to ELFS, the enrichment ratio is not above 0.25. As for RAVS, the enrichment ratio was not above 0.25. As to IMVH, the enrichment ratio is not above 0.25. For the variant RVFE, the enrichment ratio was not above 0.25.

HFQG: the enrichment ratio was not above 0.25. As for MPWE, the enrichment ratio was not above 0.25.

As for SYWV, the enrichment ratio is not above 0.25. Turning to RKED, the enrichment ratio was not above 0.25. PWSG: the enrichment ratio was not above 0.25. For VDKT, the enrichment ratio was not above 0.25. On to DAEL, for which the enrichment ratio is not above 0.25. As for LDCE, the enrichment ratio was not above 0.25. Turning to KSQC, the enrichment ratio is not above 0.25. Under NYYA stands not above 0.25; under SEDV, not above 0.25; under LSSD, not above 0.25. With QQRL, the enrichment ratio was not above 0.25. As to NLRE, the enrichment ratio is not above 0.25. SWGY: the enrichment ratio is not above 0.25. ESVK: the enrichment ratio was not above 0.25.

Take IFSS: the enrichment ratio is not above 0.25. Regarding HMFD, the enrichment ratio was not above 0.25. As to HQRS, the enrichment ratio was not above 0.25. For CVAH, the enrichment ratio is not above 0.25. For the variant YHHN, the enrichment ratio is not above 0.25.

FEVT: the enrichment ratio was determined as 8.94. As for MEIG, the enrichment ratio turned out to be 8.35.

On to DDKI, for which the enrichment ratio was not above 0.25. As for ITWC, the enrichment ratio was not above 0.25. The result for YTEH reads not above 0.25. For ACGA, the enrichment ratio was not above 0.25. Take SKQY: the enrichment ratio was not above 0.25.

As for SKCN, the enrichment ratio was determined as 3.51. With LDYC, the enrichment ratio is not above 0.25. Turning to FIGN, the enrichment ratio was not above 0.25. With QNTY, the enrichment ratio was not above 0.25.

As to GNHQ, the enrichment ratio is not above 0.25. As for QDPP, the enrichment ratio was not above 0.25. The result for DMQG reads not above 0.25; that for DENY, not above 0.25. Take IYLV: the enrichment ratio is not above 0.25.

For the variant SGDC, the enrichment ratio was not above 0.25. QYRW: the enrichment ratio was not above 0.25. As to MPNA, the enrichment ratio was not above 0.25. For WNSN, the enrichment ratio was not above 0.25. Regarding YEFR, the enrichment ratio is not above 0.25. For the variant TSIW, the enrichment ratio is not above 0.25. For the variant IHPH, the enrichment ratio is not above 0.25. As to VSHM, the enrichment ratio was not above 0.25. On to VWTK, for which the enrichment ratio is not above 0.25. Consider RVDA, for which the enrichment ratio was not above 0.25.

For the variant TFTD, the enrichment ratio is not above 0.25. The result for KNHV reads not above 0.25; that for EEVR, not above 0.25; that for NYWQ, not above 0.25. Under RIQR stands not above 0.25. As to NNPI, the enrichment ratio was not above 0.25. As to YKIH, the enrichment ratio was not above 0.25. Consider LSNI, for which the enrichment ratio is not above 0.25. On to NFWC, for which the enrichment ratio was not above 0.25.

Take KFRT: the enrichment ratio is not above 0.25. As for QLNC, the enrichment ratio is not above 0.25.

Take PYAA: the enrichment ratio is not above 0.25. With DVSK, the enrichment ratio was not above 0.25.

In the case of MDFI, the enrichment ratio is not above 0.25. HMDE: the enrichment ratio was not above 0.25.

The values are drawn from a collection of fitness landscapes (doi:10.1126/science.1257360).
